From the supplement of paper PMC9446081
Screen size: about 39,000 compounds; about 220 (0.56%) showed activity. The list shows a part of the results.

tested on: Escherichia coli K-12 BW25113; assay: relative growth (OD600 normalised to plate interquartile mean) (fraction); higher = less growth inhibition, active = 0.2 or less; details: 50 µM; LB; incubation time: overnight (16-24 h)
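Also: static incubation at 37 °C against the wild-type strain, values averaged over two biological replicates.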

Structure (SMILES)	relative growth
C[C@@H]1CCCCO[C@H](CN(C)C(=O)Nc2ccc3c(c2)OCO3)[C@@H](C)CN([C@@H](C)CO)C(=O)c2cc(NC(=O)c3ccccc3)ccc2O1	inactive: 1.03
C[C@H]1CN([C@@H](C)CO)C(=O)c2cc(NC(=O)Nc3ccc(C(F)(F)F)cc3)ccc2O[C@H]1CN(C)C(=O)Nc1ccc(F)cc1	inactive: 1
C[C@@H]1CN([C@@H](C)CO)C(=O)Cc2cc(NC(=O)Cn3cnnn3)ccc2O[C@@H]1CN(C)Cc1ccc(C(=O)O)cc1	inactive: 0.969
CN(C)CC(=O)N[C@@H]1CC[C@H](CC(=O)O)O[C@@H]1CO	inactive: 0.991
COc1ccc(S(=O)(=O)N(C)C[C@H]2Oc3ccc(NS(=O)(=O)c4cn(C)cn4)cc3C(=O)N([C@H](C)CO)C[C@@H]2C)cc1	inactive: 0.963
CC(C)(C)OC(=O)N[C@H]1CCCCC/C=C\[C@@H]2C[C@@]2(C(=O)NS(=O)(=O)C2CC2)NC(=O)[C@@H]2C[C@@H](OC(=O)N3Cc4cccc(F)c4C3)CN2C1=O	inactive: 0.925
C[C@H]1CN([C@@H](C)CO)C(=O)c2cccc(NS(=O)(=O)c3ccc(Cl)cc3)c2O[C@@H]1CN(C)Cc1ccc(C(F)(F)F)cc1	inactive: 1.02
C=C(C)C1CCC2(C)CCC3(C)C(CCC4C5(C)CCC(OC(C)=O)C(C)(C)C5CCC43C)C12 (configuration not stated)	inactive: 0.829
NC(=O)Cn1cnc2sc3c(c2c1=O)CCC3	inactive: 1.02
C[C@H]1CN([C@@H](C)CO)C(=O)Cc2cc(NC(=O)Nc3ccc(F)cc3)ccc2O[C@@H]1CN(C)S(C)(=O)=O	inactive: 0.982
O=C(NCCN1CCOCC1)[C@@]1(CCS(=O)(=O)c2ccccc2)COC(c2ccc(OCCCO)cc2)=N1	inactive: 0.988
CN1C(=O)COc2cc(N)ccc21	inactive: 1.03
COCCCNC(=O)[C@@]1(Cc2ccccc2I)c2ccccc2C(=O)N(Cc2ccccc2OC)[C@H]1c1ccc(CO)cc1	inactive: 1.03
COc1ccc(Cl)cc1C(=O)NCCc1ccc(S(=O)(=O)NC(=O)NC2CCCCC2)cc1	inactive: 0.894
O=c1[nH]ccn(-c2ccccc2)c1=O	inactive: 1.02
C[C@H]1CCCCO[C@@H](CN(C)C(=O)Cc2ccccc2)[C@@H](C)CN([C@@H](C)CO)C(=O)c2cc(NS(=O)(=O)c3ccc(Cl)cc3)ccc2O1	inactive: 1.03
C[C@H]1CN([C@@H](C)CO)C(=O)c2c(c3ccccc3n2C)-c2ccccc2CO[C@@H]1CN(C)C(=O)Nc1cccc(Cl)c1Cl	inactive: 1.02
Clc1ccc(C(Cn2ccnc2)OCc2c(Cl)cccc2Cl)c(Cl)c1.O=[N+]([O-])O (configuration not stated)	inactive: 0.739
C[C@H](CO)N1C[C@H](C)[C@H](CN(C)Cc2ccc(Cl)c(Cl)c2)OCCCC[C@H](C)Oc2ccc(NC(=O)Nc3ccc(F)cc3)cc2C1=O	inactive: 0.977
C[C@H]1CN([C@@H](C)CO)S(=O)(=O)c2ccc(-c3cccnc3)cc2O[C@H]1CN(C)C(=O)c1cccc(F)c1	inactive: 1.01
Cc1noc(C)c1NC(=O)Nc1ccc2c(c1)C(=O)N([C@H](C)CO)C[C@@H](C)[C@@H](CN(C)Cc1ccccc1)OCCCC[C@@H](C)O2	inactive: 1.01

Structure (SMILES)	relative growth
O=C(C[C@@H]1CC[C@H]2[C@@H](COC[C@@H](O)CN2C(=O)Nc2cccc(F)c2)O1)NCCCN1CCOCC1	inactive: 0.951
C[C@@H]1CCCCO[C@H](CN(C)Cc2ccc(C(F)(F)F)cc2)[C@H](C)CN([C@@H](C)CO)C(=O)c2cc(NS(=O)(=O)c3cccs3)ccc2O1	inactive: 0.999
CC(C)=CCC1=C(O)C(=O)c2ccccc2C1=O	inactive: 0.796
C[C@@H]1CN([C@H](C)CO)C(=O)c2ccccc2-c2ccccc2CO[C@@H]1CN(C)C(=O)Nc1ccccc1C(F)(F)F	inactive: 0.991
COCC(=O)N1C[C@H](C)[C@H](OC)CN(C)C(=O)c2cc(NC(=O)Nc3cccc(F)c3)ccc2OC[C@H]1C	inactive: 0.989
C[C@@H]1CN([C@H](C)CO)C(=O)Cc2cc(NS(=O)(=O)c3cn(C)cn3)ccc2O[C@H]1CN(C)Cc1ccc(C(=O)O)cc1	inactive: 0.973
O=C(C[C@H]1CC[C@@H]2[C@H](COC[C@H](O)CN2S(=O)(=O)c2ccc(Cl)cc2)O1)NCC1CCCCC1	inactive: 0.696
O=C(C[C@H]1CC[C@H](NC(=O)CN2CCOCC2)[C@H](CO)O1)NCCc1ccncc1	inactive: 0.994
CC(C)NC(=O)N(C)C[C@H]1OCCCC[C@H](C)Oc2ccc(NC(=O)Nc3ccc(F)cc3)cc2C(=O)N([C@@H](C)CO)C[C@H]1C	inactive: 0.985
Cc1noc(C)c1NC(=O)N(C)C[C@H]1OCCCC[C@@H](C)Oc2ccc(NC(=O)C3CCCCC3)cc2C(=O)N([C@H](C)CO)C[C@H]1C	inactive: 1
CCOC(=O)[C@H]1CC(CC2OCCO2)=NO1	inactive: 1.01
C[C@H]1CN([C@@H](C)CO)S(=O)(=O)c2ccc(C#CC3(O)CCCC3)cc2O[C@@H]1CN(C)C(=O)Nc1cccc(F)c1	inactive: 1.02
C[C@H](CO)N1C[C@H](C)[C@@H](CN(C)Cc2ccc(C(=O)O)cc2)Oc2ccc(NC(=O)CCCN(C)C)cc2C1=O	inactive: 0.969
CO[C@@H]1CN(C)C(=O)c2ccc(NC(=O)c3cc(C)on3)cc2OC[C@@H](C)N(S(=O)(=O)c2ccccc2)C[C@H]1C	inactive: 1
C[C@@H]1CN([C@H](C)CO)C(=O)c2cc(NS(C)(=O)=O)ccc2O[C@@H]1CN(C)Cc1ccc(C(=O)O)cc1	inactive: 0.996
COc1ccc(NC(=O)Nc2ccc3c(c2)C(=O)N([C@@H](C)CO)C[C@@H](C)[C@H](CN(C)C(=O)NC(C)C)OCCCC[C@@H](C)O3)cc1	inactive: 0.996
C/C(=N\N)c1c(C)cc(C)[nH]c1=O	inactive: 1.02
Cc1ccc(S(=O)(=O)N(C)C[C@H]2OCCCC[C@@H](C)Oc3ccc(NC(=O)Nc4cccc5ccccc45)cc3C(=O)N([C@@H](C)CO)C[C@H]2C)cc1	inactive: 1.03
Cc1noc(C)c1S(=O)(=O)Nc1ccc2c(c1)CC(=O)N([C@H](C)CO)C[C@H](C)[C@H](CN(C)Cc1ccc(C(=O)O)cc1)O2	inactive: 1
COc1ccc(S(=O)(=O)Nc2ccc3c(c2)CC(=O)N([C@H](C)CO)C[C@@H](C)[C@H](CN(C)C)O3)cc1	inactive: 0.994
C[C@@H]1CN([C@@H](C)CO)C(=O)c2cc(NC(=O)CCC(F)(F)F)ccc2O[C@@H]1CN(C)Cc1ccc(Cl)c(Cl)c1	inactive: 0.985

Structure (SMILES)	relative growth
COc1ccc(NC(=O)Nc2ccc3c(c2)C(=O)N([C@@H](C)CO)C[C@@H](C)[C@@H](CN(C)C(=O)NC2CCCCC2)OCCCC[C@@H](C)O3)cc1	inactive: 0.994
CC(=O)OCC(=O)C1CCC2C3CCC4=CC(=O)CCC4(C)C3CCC12C (configuration not stated)	inactive: 1.01
C[C@H](CO)N1C[C@H](C)[C@@H](CN(C)C(=O)Nc2ccc(F)cc2)Oc2ccc(NS(C)(=O)=O)cc2C1=O	inactive: 0.981
C[C@H](CO)N1C[C@H](C)[C@H](CN(C)S(=O)(=O)c2cccs2)OCCCC[C@H](C)Oc2ccc(NC(=O)Cc3ccccc3)cc2C1=O	inactive: 1
Cc1nc2ccc([N+](=O)[O-])cc2s1	inactive: 0.992
O=C(C[C@H]1CC[C@H]2[C@@H](COC[C@H](O)CN2S(=O)(=O)c2cccc(Cl)c2)O1)NCc1ccncn1	inactive: 1
C[C@H]1CC=CC[C@H](c2ccc3c(c2)OCO3)NC(=O)[C@@H](Cc2ccccc2)N(C)C(=O)c2ccccc2O1	inactive: 1
CC(C)(C)OC(=O)C[C@H]1CC=CC[C@H](CC(=O)N(CCO)Cc2ccccc2)C(=O)N2CCC[C@@H]2COC1=O	inactive: 1.04
COCC#Cc1ccc2c(c1)O[C@H](CN(C)Cc1ccc(F)cc1)[C@H](C)CN([C@H](C)CO)S2(=O)=O	inactive: 1.03
O=C(CCCCCCC(=O)Nc1ccccc1O)N/N=C/[C@H](O)[C@@H](O)[C@H](O[C@@H]1O[C@H](CO)[C@H](O)[C@H](O)[C@H]1O)[C@H](O)CO	inactive: 0.987
O=C(O)C1CC(C2CCCCN2)CN2CCCCC12 (configuration not stated)	inactive: 0.976
CCCCCCNC(=O)n1cc(F)c(=O)[nH]c1=O	inactive: 0.463
CCCC(=O)Nc1ccc2c(c1)C(=O)N(C)C[C@@H](OC)[C@H](C)CN(C(=O)Cc1ccccn1)[C@H](C)CO2	inactive: 0.987
C[C@H]1CN([C@@H](C)CO)C(=O)c2cc(C#CC3CCCC3)cnc2O[C@H]1CN(C)C(=O)Cc1ccccn1	inactive: 1.02
[O-]/[N+](=N\O[C@H]1O[C@H](CO)[C@@H](O)[C@H](O)[C@@H]1O)N1CCCC1	inactive: 0.968
C[C@@H]1CN([C@H](C)CO)C(=O)c2cc(NS(=O)(=O)c3cccs3)ccc2O[C@H]1CN(C)Cc1ccncc1	inactive: 0.998
Cc1ccc(S(=O)(=O)Nc2ccc3c(c2)CC(=O)N([C@H](C)CO)C[C@H](C)[C@@H](CN(C)S(=O)(=O)c2ccc(F)cc2)O3)cc1	inactive: 1.01
C[C@@H]1CCCCO[C@@H](CN(C)S(C)(=O)=O)[C@H](C)CN([C@H](C)CO)C(=O)c2cc(NC(=O)Nc3ccc(C(F)(F)F)cc3)ccc2O1	inactive: 0.985
C[C@H]1CN([C@@H](C)CO)C(=O)Cc2cc(NS(=O)(=O)c3ccc(Cl)cc3)ccc2O[C@H]1CN(C)Cc1ccc(C(=O)Nc2ccccc2N)cc1	inactive: 0.974
C[C@H](CO)N1C[C@H](C)[C@H](CN(C)C(=O)Nc2cccc3ccccc23)Oc2ncc(/C=C/c3ccccc3)cc2C1=O	inactive: 1.01
